# Measured values as given in publication PMC4336329 (PLoS ONE, 2015).
# Hit rate of the full screen: of about 310,000 compounds, about 14,000 (4.5%) showed an effect of 50% or more. Effects have a minus sign here. The list shows a part of the results.
# Target: human ether-à-go-go-related gene (hERG) potassium channel (human, UniProt Q12809)
# Experiment: primary screen, population patch clamp on CHO cells stably expressing hERG
# 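Also: peak tail current of the secondary pulse compared with the same well before compound.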
# Chain of human ether-à-go-go-related gene (hERG) potassium channel (Q12809 whole entry, looked up): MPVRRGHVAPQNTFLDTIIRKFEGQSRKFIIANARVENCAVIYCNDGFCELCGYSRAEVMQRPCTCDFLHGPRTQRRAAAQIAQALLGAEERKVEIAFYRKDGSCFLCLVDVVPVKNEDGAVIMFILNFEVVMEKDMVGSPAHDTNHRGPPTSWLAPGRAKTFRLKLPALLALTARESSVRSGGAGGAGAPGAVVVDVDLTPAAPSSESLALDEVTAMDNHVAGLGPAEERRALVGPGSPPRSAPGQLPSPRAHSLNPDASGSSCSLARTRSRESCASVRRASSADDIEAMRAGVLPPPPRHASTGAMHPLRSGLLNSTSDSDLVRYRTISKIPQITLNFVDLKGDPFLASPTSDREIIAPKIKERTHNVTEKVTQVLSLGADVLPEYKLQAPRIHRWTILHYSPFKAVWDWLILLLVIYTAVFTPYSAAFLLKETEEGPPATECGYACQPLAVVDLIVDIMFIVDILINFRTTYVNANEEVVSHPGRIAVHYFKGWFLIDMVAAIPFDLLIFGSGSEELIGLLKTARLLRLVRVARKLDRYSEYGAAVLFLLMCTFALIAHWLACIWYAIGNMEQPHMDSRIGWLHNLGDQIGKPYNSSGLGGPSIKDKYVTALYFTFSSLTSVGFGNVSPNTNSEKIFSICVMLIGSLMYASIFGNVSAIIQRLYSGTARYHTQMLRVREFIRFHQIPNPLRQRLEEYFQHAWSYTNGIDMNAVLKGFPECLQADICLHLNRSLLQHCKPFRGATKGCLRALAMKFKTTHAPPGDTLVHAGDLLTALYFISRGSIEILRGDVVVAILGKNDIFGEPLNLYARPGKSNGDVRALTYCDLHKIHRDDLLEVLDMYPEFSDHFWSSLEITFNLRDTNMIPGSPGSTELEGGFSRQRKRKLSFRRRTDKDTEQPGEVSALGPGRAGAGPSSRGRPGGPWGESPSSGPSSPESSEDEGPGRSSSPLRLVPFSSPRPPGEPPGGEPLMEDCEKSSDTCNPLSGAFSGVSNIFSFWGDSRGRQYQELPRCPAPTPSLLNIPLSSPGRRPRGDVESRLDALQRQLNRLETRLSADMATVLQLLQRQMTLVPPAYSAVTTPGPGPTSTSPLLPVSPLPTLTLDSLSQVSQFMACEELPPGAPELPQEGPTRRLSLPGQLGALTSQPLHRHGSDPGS
row,Structure (SMILES),"hERG current change (%, negative = inhibition) at 10uM"
1,O=C(CSc1nnc(CNC(=O)c2cccs2)o1)Nc1ccccc1F,5.64%
2,C[C@@H]1O[C@@H](Oc2c(-c3cc(O)c(O)c(O)c3)oc3cc(O)cc(O)c3c2=O)[C@H](O)[C@H](O)[C@H]1O,4%
3,COc1ccccc1NC(=O)CCc1c(C)[nH]c(=O)c(C#N)c1C,-12.7%
4,COc1cc(/C=N/NC(=O)c2cc(C)oc2C)ccc1OCc1ccccc1,-11.5%
5,CC(=O)c1cccc(NS(=O)(=O)c2ccc(N/C=C\C(=O)c3ccc(C)cc3)cc2)c1,4.74%
6,COc1ccc(NC(=O)CCC(=O)c2cccs2)cc1S(=O)(=O)Nc1ccccc1Cl,-5.65%
7,COc1ccc(NC(=O)CN(C)C(=O)c2c(-c3c(F)cccc3Cl)noc2C)cc1,-16.2%
8,COc1cc2cnc(Cl)nc2cc1OC,9.52%
9,Cc1c(C(=O)Nc2ccc(S(=O)(=O)Nc3ncccn3)cc2)oc2ccc(Cl)cc12,-17.4%
10,C#CCOCCOCCOCCNc1nc(N2CCN(C(=O)[C@H]([C@@H](C)CC)n3cc([C@@H](N)Cc4ccc(O)cc4)nn3)CC2)nc(N2CCN(C(=O)[C@H](CCCCN)n3cc([C@@H](N)CO)nn3)CC2)n1.Cl,7.78%
11,Cc1cc(NC(=O)CSC2=Nc3ccccc3C3=NC(Cc4ccccc4)C(=O)N23)n[nH]1 (stereo not shown),-21%
12,COc1ccc(NC(=O)C(=O)Nc2cccc3ccccc23)c(OC)c1,9.31%
13,CN(C)S(=O)(=O)c1cccc(C(=O)Nc2ccc(Cl)cn2)c1,-5.22%
14,Cc1c(Cl)cccc1NC(=S)NCc1ccco1,4.12%
15,CC#CCCCC(=O)Nc1cc(OC)nc(OC)n1,-6.02%
16,CN(c1ccccc1C(=O)Nc1cccc(Cl)c1Cl)S(C)(=O)=O,10.5%
17,Cc1c(Cl)cccc1NC(=O)C1CCN(c2cnccn2)CC1,-3%
18,COc1ccc(C(=O)c2c3ccccc3[n+]([O-])n2Cc2ccc(C(N)=O)cc2)cc1,4.67%
19,CC(C)(C)NC(=O)COC(=O)C1c2ccccc2Oc2ccccc21,2.16%
20,O=C(COC(=O)C1CCN(S(=O)(=O)c2cccs2)CC1)NCc1ccc(F)cc1,-49.7%
21,O=C(CN1CCOCC1)NNc1c2ccccc2nc2ccccc12,5.93%
22,CC(=O)N/C(=C/c1ccccc1)c1ccccc1,11.1%
